Out of some 43,000 compounds screened, about 200 (0.47%) were called active. Another 12% or so got no clear call; they are omitted. Calls come from the whole dose curve; as a rule, active = well fitted cell-killing curve with a large enough effect; inconclusive = small, poorly fitted or top-dose-only effect, or effect the other way; inactive = flat fitted curve, though single readings scatter. This is one part of the list.
% is set by controls: 0 for no effect and ±100 for the full control effect.

A short description of the assay: Cell viability qHTS assay in S16 Pmp22-F2sN cells. Note: nearly all actives have a fitted effect of over 65% in size. Conditions: S16 Pmp22-F2sN Schwann cells (luciferase reporters placed in the Pmp22 gene) viability, CellTiter-Glo, 24 h; at 57.5 µM (top of the series). From the text: Assay Provider: Jim Inglese Ph.D. National Center for Advancing Translational Science, National Institutes of Health, Rockville, MD CMT is a heterogeneous group of neurological disorders that affect approximately 1 in 2,500 people. In particular, the most common form of CMT, CMT1A is genetically linked to the duplication of the PMP22 gene which leads to Schwann cell overexpression, thus manifesting itself as a typical case of dose-sensitive diseases. To identify small molecule compounds that can mediate the expression of PMP22 we developed a phenotypic assay screening strategy by utilizing genome editing techniques to construct Schwann cell lines containing novel reporter technology to monitor the transcriptional or translational regulation of PMP22. For high sensitivity we use a bioluminescent reporter system embedded in the 3' UTR of the PMP22 gene (S16(c9) Pmp22-F2sN) to identify compounds that inhibit gene expression. […] We can further discriminate the effect of all transcriptionally active molecules on PMP22 translation or stability with an assay that incorporates a short NLuc peptide (HiBiT) at the C-terminus of expressed PMP22 (S16(f8) PMP22-HiBiT) allowing alpha complementation and luminescence detection of membrane-associated PMP22 protein. These assays were screened against the NCATS Sytravon Library Collection. Miniaturization of these assays to 1536-well plate format for quantitative high throughput screening (qHTS) yielded rich data sets immediately from the qHTS assay (S16(c9) Pmp22-F2sN), when compared with data from a cell viability assay (Cell TiterGlo) to identify compounds that decreased the output signals through cellular toxicity to streamline the selection process of actives for subsequent characterization using the HiBiT assay (S16(f8) PMP22-HiBiT).
Cell viability assay in S16 Pmp22-F2sN cells PROTOCOL TABLE (format as described by Inglese J, Shamu CE and Guy RK. 2007) SEQUENCE No. (e.g., 1, 2, 3, etc.); […] (e.g., Cells, Incubation, Reagent, etc.); VALUE and DESCRIPTION. 1. Cells. Add 500-1,000 cells in 4 uL in growth media (DMEM High Glucose, No Phenol Red media + 10% heat-inactivated FBS + 1% Pen/Strep supplemented media) per well into Greiner 1536-well white/solid bottom high base, TC-treated plates. 2. Compounds. Library compounds and controls added at 23nL per well, transferred by Pin Tool. 3. Incubation. Incubate plates at 37C, 5% CO2, 95% RH for 24 h. 4. Reagent. Add 3uL CellTiter-Glo per well of Greiner 1536-well plates. 5. Incubation. Incubate plates at room temperature for 15 min., protect from light. 6. Detector. FLuc luminescence measured using CCD-based camera (Viewlux). NOTES (numbers refer to Sequence numbers above; values are from representative experiments) 6. Luminescence Read: Clear filter; Exposure = 1 sec, Gain = High, Speed = Slow, Binning = 2X REFERENCES: 1. Inglese J, Shamu CE and Guy RK, Reporting data from high throughput screening of small molecule libraries, Nature Chemical Biology, 2007, 3(8): 438-441. doi.org/10.1038/nchembio0807-438 2. Yasgar A, Shinn P, Jadhav A, Auld DS, Michael S, Zheng W, Austin CP, Inglese J and Simeonov A, Compound Management for Quantitative High-Throughput Screening. J. Assoc. Lab. Auto., 2008, 13: 79-89. doi: 10.1016/j.jala.2007.12.004
A general note: Quantitative high-throughput screening tests each substance at several concentrations.
Take `Cc1ccc(NC(=O)CN2C(=O)CN=C(c3ccccc3)c3ccccc32)cc1`: the activity change, negative = cytotoxicity was inactive: -14.6%.
As to `CCCCCc1nc2ccccc2c(=O)n1-c1ccc(C)cc1`, the activity change, negative = cytotoxicity was inactive: 23.6%.
In the case of `Cc1ccccc1-n1nc(C)c2c1NC(=O)CSC2c1ccc(N(C)C)cc1` (centres undefined), the activity change, negative = cytotoxicity is inactive: -3.43%.
Take `Cc1ccc(CN2C(=O)c3ccccc3Sc3ccc(C(=O)N4CCC5(CC4)OCCO5)cc32)cc1`: the activity change, negative = cytotoxicity was inactive: -19.3%.
In the case of `COc1ccc(-n2c(/C=C\c3ccccc3F)nc3ccccc3c2=O)cc1OC`, the activity change, negative = cytotoxicity was inactive: -28.6%.
As to `COc1cccc(-n2c(/C=C/c3ccccc3O)nc3ccccc3c2=O)c1`, the activity change, negative = cytotoxicity is inactive: 27.3%.
Consider `CC(C)c1nn2c(=O)cc(COC(=O)Cc3ccccc3)nc2s1`, for which the activity change, negative = cytotoxicity is inactive: -4.52%.
As for `O=C1CN=C(c2ccccc2Cl)c2cc(Cl)ccc2N1Cc1cccc(Cl)c1`, the activity change, negative = cytotoxicity is inactive: -9.81%.
On to `Cc1ccc(NC(=O)c2cccn(Cc3ccccc3C)c2=O)c(C)c1`, for which the activity change, negative = cytotoxicity is inactive: 23.8%.
`CC(C)(C)c1ccc(C(=O)Nc2ccc(Cl)cc2C(=O)c2ccccc2)cc1`: the activity change, negative = cytotoxicity is inactive: 8.74%.
The result for `O=C(Nc1cc(C(F)(F)F)cc(C(F)(F)F)c1)c1cccn(Cc2ccccc2Cl)c1=O` reads inactive: -0.317%; that for `C=Cc1ccc(Cn2c(C)c(CNCCc3cc(OC)ccc3OC)c(C(=O)O)c2C)cc1`, inactive: 11.9%.
The value for `Cc1ccccc1Cn1cccc(C(=O)Nc2nc3ccccc3s2)c1=O` was inactive: 0.463%; that for `CCCCc1nn2c(=O)cc(COC(=O)Cc3ccccc3)nc2s1` was inactive: 25.4%; that for `O=C(Nc1ccc(F)c([N+](=O)[O-])c1)c1cccn(Cc2ccccc2)c1=O` was inactive: 6.96%.
In the case of `COc1ccc(NC(=O)c2sc3nc4c(cc3c2N)N2CCC4CC2)cc1OC`, the activity change, negative = cytotoxicity is inactive: -35.3%.
The value for `Cc1ccc2c(c1)C(Cc1nc3ccccc3c(=O)n1-c1ccc(Br)cc1)C(=O)N2` (centres undefined) was inactive: 0.884%; that for `O=C(COc1cc(Cl)ccc1Cl)Nc1ccc(Cl)cc1C(=O)c1ccccc1` was inactive: 5.95%.
`Cn1c(=O)n(C)c2cc(CNCCc3ccc(F)cc3)ccc21`: the activity change, negative = cytotoxicity is inactive: 8.78%.
In the case of `Cc1ccc(NC(=O)Cn2cc(C(=O)c3ccccc3)c3ccccc32)cc1`, the activity change, negative = cytotoxicity is inactive: -24%.
As to `Cc1ccc2nc(NC(=O)c3cccn(Cc4ccc(Cl)cc4)c3=O)sc2c1`, the activity change, negative = cytotoxicity was inactive: 3.22%.
As for `CCOc1ccc(CN(CCc2ccc3c(c2)OCO3)Cc2cccc(OC)c2)cc1`, the activity change, negative = cytotoxicity was inactive: 9.23%.
Take `COc1ccc(C)cc1NC(=O)N(Cc1ccc2c(c1)OCO2)C1CCN(Cc2ccccc2)CC1`: the activity change, negative = cytotoxicity is inactive: -26.1%.
Consider `CC(C)C12CN3CC(C(C)C)(CN(C1)C3c1ccccn1)C2=O` (centres undefined), for which the activity change, negative = cytotoxicity was inactive: -2.24%.
The result for `CCOc1ccc(NC(=O)Cn2cc(C(=O)c3ccccc3)c3ccccc32)cc1` reads inactive: -9.39%; that for `Cc1ccc(-n2c(/C=C\c3ccc(F)cc3)nc3ccccc3c2=O)cc1Cl`, inactive: -5.24%.
Take `COc1cccc(NC(=O)Cn2cc(C(=O)c3ccccc3)c3ccccc32)c1`: the activity change, negative = cytotoxicity was inactive: -2.61%.
As for `CCN(CC)CCSc1nc2ccccc2c(=O)n1-c1ccc(Cl)cc1`, the activity change, negative = cytotoxicity is inactive: -25.5%.
`Cc1cccc(Cn2cccc(C(=O)Nc3ccc4c(c3)OCCO4)c2=O)c1`: the activity change, negative = cytotoxicity is inactive: 22%.
For `Cc1ccc(Cn2cccc(C(=O)Nc3ccc4c(c3)OCO4)c2=O)cc1`, the activity change, negative = cytotoxicity was inactive: -1.39%.
The value for `Cc1cc(-n2c(/C=C/c3cccs3)nc3ccccc3c2=O)ccc1Br` was inactive: -9.78%.
The value for `Cc1cc(-n2c(/C=C/c3ccc(Br)s3)nc3ccccc3c2=O)ccc1Br` was inactive: 0.144%.
Turning to `Cc1c(C(c2ccc(Cl)cc2Cl)c2c(O)c3ccccc3oc2=O)c(=O)n(-c2ccccc2)n1C` (centres undefined), the activity change, negative = cytotoxicity was inactive: 6.08%.
The result for `CCCCc1ccc(NC(=O)c2cccn(Cc3ccc(Cl)cc3)c2=O)cc1` reads inactive: -5.27%.
For the compound `O=c1c2ccccc2nc(/C=C\c2ccccc2F)n1-c1ccc(O)cc1`, the activity change, negative = cytotoxicity is inactive: -4.83%.
The value for `Cc1ccc(-n2c(/C=C/c3cc(Br)cs3)nc3ccccc3c2=O)cc1` was inactive: -17.6%.
As for `Cc1ccc(OCC(=O)N2CCN(CCc3ccncc3)CC2)cc1C`, the activity change, negative = cytotoxicity is inactive: 24.4%.
The result for `COc1ccc(C(=O)Nc2ccc(Cl)cc2C(=O)c2ccccc2)c(OC)c1` reads inactive: 22.3%.
As for `Cc1ccccc1CN1C(=O)CN=C(c2ccccc2)c2cc(Cl)ccc21`, the activity change, negative = cytotoxicity is inactive: 2.54%.
Take `Cc1cccc(-n2c(/C=C/c3ccccc3O)nc3ccccc3c2=O)c1`: the activity change, negative = cytotoxicity is inactive: 0.599%.
`CCc1ccc(NC(=O)c2cccn(Cc3cccc([N+](=O)[O-])c3)c2=O)cc1`: the activity change, negative = cytotoxicity was inactive: 8.5%.
The result for `Cc1ccc(-n2c(/C=C/c3ccc(Br)s3)nc3ccccc3c2=O)cc1` reads inactive: -29.6%.
The value for `COc1ccc(Cl)cc1NC(=O)CN1C(=O)CN=C(c2ccccc2)c2cc(Cl)ccc21` was inactive: -2.58%; that for `O=C(CCc1nc(C2=CCN(Cc3cccc(Cl)c3)CC2)no1)Nc1ccccc1F` was inactive: 0.712%.

The values are drawn from PubChem BioAssay AID1508642 (National Center for Advancing Translational Sciences (NCATS), 2021).
